The values that follow come from PubChem BioAssay AID1159614 (National Center for Advancing Translational Sciences (NCATS), 2016).

The structures appear in SMILES notation. Screen size: about 45,000 compounds; about 65 (0.1%) were called active. Calls follow the shape of the dose curve; as a rule, active = well fitted activation curve with a large enough effect; inconclusive = small, poorly fitted or top-dose-only effect; inactive = no such curve, though single readings can be large or run the other way. This is one part of the list.

The test deals with Galactocerebrosidase (Homo sapiens) (UniProt P54803). The test can be described thus: A Novel Cell-Based Assay to Identify Small Molecules for B -Galactocerebrosidase. Also: 0% is about no effect; nearly all actives have a fitted effect of over 65% in size. The note with it: 145M-Twi-hGALC-G270D cells (Twitcher mouse brain line with human GALC G270D), HMU-beta-Gal fluorescence, 48 h; series mostly up to 57.5 µM; activation: at the top concentration. The method in brief: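 Fluorogenic HMU-b-Gal hydrolysis (0.1 mM final, pH 5.2 citrate-phosphate with 1 mg/mL sodium taurocholate; carbonate stop buffer) measures mutant GALC activity after compound treatment of live 145M-Twi Twitcher brain cells stably carrying human GALC-G270D, with wild-type GALC line alongside; activation sought.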
UniProt P54803, sequence (P54803 whole entry, looked up): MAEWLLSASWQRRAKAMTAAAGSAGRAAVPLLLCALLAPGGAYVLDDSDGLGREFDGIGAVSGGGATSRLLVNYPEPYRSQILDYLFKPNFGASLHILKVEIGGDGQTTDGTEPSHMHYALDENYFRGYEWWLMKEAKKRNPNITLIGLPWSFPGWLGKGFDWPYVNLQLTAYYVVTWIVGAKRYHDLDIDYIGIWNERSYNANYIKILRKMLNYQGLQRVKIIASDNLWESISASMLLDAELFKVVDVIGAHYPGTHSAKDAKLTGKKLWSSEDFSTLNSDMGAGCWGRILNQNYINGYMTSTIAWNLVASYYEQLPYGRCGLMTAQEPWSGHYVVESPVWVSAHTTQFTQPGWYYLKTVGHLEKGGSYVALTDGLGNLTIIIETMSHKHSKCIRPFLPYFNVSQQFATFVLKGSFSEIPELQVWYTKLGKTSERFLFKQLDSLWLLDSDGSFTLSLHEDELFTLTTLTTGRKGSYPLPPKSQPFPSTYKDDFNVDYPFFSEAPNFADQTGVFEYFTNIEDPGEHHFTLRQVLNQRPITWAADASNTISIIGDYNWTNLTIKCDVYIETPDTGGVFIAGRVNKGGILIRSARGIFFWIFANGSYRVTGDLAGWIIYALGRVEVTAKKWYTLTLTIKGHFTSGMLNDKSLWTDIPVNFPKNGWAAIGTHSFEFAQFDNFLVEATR
Consider `COc1ccc(CNC(=O)c2cc3c(s2)-c2c(C)cccc2OC3)cc1`, for which the “activation” value is inactive: -13.5%. On to `Cc1ccc(C)c(NC(=O)C(=O)NCCc2csc3nc(-c4ccccc4C)nn23)c1`, for which the “activation” value was inactive: -33.2%. In the case of `CCOC(=O)c1oc2c(c1C)-c1nn(Cc3ccccc3Cl)cc1CC2` it was inactive: -7.03%. As to `COC(=O)NCc1c(C)nn(-c2ccccc2)c1-n1cccc1`, the “activation” value is inactive: -9.29%. To `Cc1cccc(-n2ncc(C(=O)NCc3ccccn3)c2C2CCN(C(=O)OC(C)(C)C)CC2)c1` belongs inactive: -17.4%. Consider `CCN1CCN(Cc2c(O)ccc3c(C)c(-c4ccccc4)c(=O)oc23)CC1`, for which the “activation” value is inactive: -11.5%. For the molecule `Cc1cc(NC(=O)Cn2nc(C)n3cccc3c2=O)ccc1Br`, the “activation” value is inactive: -5.82%. Take `Cn1c(=O)n(-c2cccc(Cl)c2)c(=O)c2sc3ccccc3c21`: the “activation” value was inactive: -6.74%.

Turning to `CCOC(=O)N1CCC2(CC1)OC(=O)C(C)=C2C(=O)NCc1cccc(OC)c1`, the “activation” value was inactive: -3.84%.

Regarding `CCCS(=O)(=O)N1CC(=O)N(c2ccccc2C)C(C)(C(=O)NC2CCCC2)C1` (stereo not drawn), the “activation” value was inactive: -2.91%. In the case of `CNC(=O)c1sc2ncccc2c1-n1cccc1` it was inactive: -15%. In the case of `Cc1ccc(NC(=O)C(c2ccccc2)N2Cc3ccccc3C2=O)cc1Cl` (stereo not drawn) it was inactive: -16%.

Regarding `Cc1ccc(C)c(N2CCN(c3nc4ccccc4n4c(C)nnc34)CC2)c1`, the “activation” value is inactive: -5.83%. To `Cc1ccc(NC(=O)Cn2c(=O)n(CCC(=O)NCc3ccc4c(c3)OCO4)c(=O)c3sccc32)c(C)c1` belongs inactive: -17.6%.

On to `CCCC(C(=O)OCCN(CC)CC)(c1ccccc1)c1ccccc1`, for which the “activation” value was inactive: -8.99%. In the case of `O=C(CSc1nc2c(c(=O)[nH]1)CCCC2)Nc1ccc(Br)cc1` it was inactive: -0.305%; in that of `COc1ccc(CNc2cc(-c3ccc(OC)cc3)nc3nncn23)cc1`, inactive: -4.99%; in that of `COc1ccccc1C(=O)Nc1c(C(=O)N(C)c2ccccc2)sc2nc(C)cc(C)c12`, inactive: -19.8%. In the case of `Cc1cccc(NC(=O)c2oc3ccccc3c2NC(=O)c2cc(=O)c3cc(Cl)ccc3o2)c1` it was inactive: 7.39%; in that of `CCOC(=O)c1ccc(OC(=O)CCCCCN=C(N)N)cc1`, inactive: -7.79%. In the case of `Cn1c(SCC(=O)c2ccc(F)cc2)nnc1-c1ccccc1Br` it was inactive: -48.3%; in that of `COc1ccc(C)cc1NC(=O)CSc1ccc(-c2ccccn2)nn1`, inactive: -11%; in that of `O=C(Nc1ccc(Cl)cc1)c1cc(S(=O)(=O)N2CCc3ccccc32)ccc1F`, inactive: -10.2%. Take `COc1ccc(-c2nc(Cn3c(SCc4ccccc4F)nc4ccncc43)c(C)o2)cc1OC`: the “activation” value was inactive: -12.3%.

For the molecule `Cc1ccc(S(=O)(=O)Nc2nc3n(n2)C(c2ccccc2Cl)C=C(c2ccccc2)N3)cc1` (stereo not drawn), the “activation” value was inactive: -15.3%. As for `Cn1c(=O)c2sccc2n2c(CCC(=O)NCc3ccccc3Cl)nnc12`, the “activation” value was inactive: 16.7%. With `CN(Cc1ccccc1)C(=O)C1CCN(S(=O)(=O)c2ccc3nc4c(c(C(=O)O)c3c2)CCCC4)CC1`, the “activation” value was inactive: -7.37%. In the case of `COc1ccc(CNC(=O)C2CCN(C(=O)N3CC(C)Oc4ccc(C)cc43)CC2)cc1` (stereo not drawn) it was inactive: -11.6%. In the case of `COc1cccc(CNC(=O)CN2C(=O)COc3ccc(S(=O)(=O)Nc4ccccc4)cc32)c1` it was inactive: -7.97%. To `O=C(CCS(=O)(=O)c1cc(Br)cc2c1N(C(=O)C1CC1)CC2)Nc1ccc(C(F)(F)F)cc1` belongs inactive: -9.83%; to `COc1ccc(CCNC(=O)c2c(C)oc3ncn(CC(C)C)c(=O)c23)cc1OC`, inactive: -9.81%. Consider `CCn1cc(C(=O)NCCc2ccc(C)cc2)c(=O)c2cc(S(=O)(=O)N3CCCCC3)ccc21`, for which the “activation” value was inactive: -9.08%.

Consider `Cc1cc(C)cc(NC(=O)C2CCC(CNS(=O)(=O)c3ccc4c(c3)C(C)(C)C(=O)N4C)CC2)c1` (stereo not drawn), for which the “activation” value is inactive: 7.31%. For `CCOc1ccc(C(=O)Nc2cc(-c3cn4cccnc4n3)ccc2C)cc1OCC`, the “activation” value was inactive: 5.41%. To `CCN(CC)S(=O)(=O)c1nnc(NC(=O)c2ccc(C(C)C)cc2)s1` belongs inactive: -18.3%; to `O=C(c1ccco1)N1CCN(c2nc3c(Cl)cccc3s2)CC1`, inactive: -17.4%. In the case of `O=C(Cn1c(=O)n(-c2ccc(Cl)cc2)c(=O)c2oc3ccccc3c21)Nc1ccccc1` it was inactive: 5.39%. In the case of `CC1CCN(c2ncnc3c2nnn3C)CC1` it was inactive: -12.3%; in that of `Cc1cccc(N2CCN(CCCNC(=O)c3nnc(Cc4c(F)cccc4Cl)o3)CC2C)c1` (stereo not drawn), inactive: -6.25%. For `CCCSS/C(CCO)=C(\C)N(C=O)Cc1cnc(C)nc1N`, the “activation” value is inactive: -13.2%.

`COc1cccc(C(=O)Nc2ccccc2-c2nnc(-c3cc(OC)ccc3Br)o2)c1`: the “activation” value is inactive: 5.09%. In the case of `Cn1cnc(S(=O)(=O)N2CCC(C(=O)NCc3ccc(F)cc3)CC2)c1` it was inactive: -19.2%.

In the case of `O=C(Cc1ccc(Cl)cc1)NCC(c1cccs1)S(=O)(=O)c1ccc(F)cc1` (stereo not drawn), the “activation” value is inactive: -1.08%. In the case of `COc1ccc(C2=C(C)C(=O)N(Cc3ccc(C(=O)Nc4cc(C)ccc4C)cc3)S2(=O)=O)cc1` it was inactive: -16.7%; in that of `O=C(COC(=O)c1cccc(NC(=O)c2ccc(Br)cc2)c1)c1ccc(Br)cc1`, inactive: -5.22%. To `COc1cccc(C(=O)Nc2ccc3nc(N4CCC(C)CC4)cc(C)c3c2)c1` belongs inactive: -2.89%; to `Cc1nn2c(=O)cc(COC(=O)c3cccc(NC(=O)c4ccc(C(C)(C)C)cc4)c3)nc2s1`, inactive: -1.5%; to `COc1ccc(C2=CC(c3cccc(C)c3)n3nnnc3N2)cc1` (stereo not drawn), inactive: -12.1%.
